From PubChem BioAssay AID1508624 (National Center for Advancing Translational Sciences (NCATS), 2021) come the findings set out here.

About 120 (0.25%) of roughly 48,000 compounds were called active. Inconclusive results (about 4%) are left out. Calls follow the shape of the dose curve; as a rule, active = well fitted activation curve with a large enough effect; inconclusive = small, poorly fitted or top-dose-only effect, or another doubt; inactive = no such curve, though single readings can be large or run the other way. Some of the results follow.

A short description of this test: Primary qHTS for Identification of Small Molecule Activators of Huntingtin-Antisense Promoter Activity. Also: nearly all actives have a fitted effect of over 55% in size. The settings on record: HEK293 HTT-AS promoter firefly luciferase reporter, 24 h; series mostly up to 57.5 µM; activity change, positive = activation: at the top concentration. In short, it runs like this:
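Quantitative HTS used concentration series of up to 57.5 uM final on HEK293 luciferase reporter cells, 24 h at 37 degrees C. Readout was Dual-Glo firefly luminescence.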
A general note: In qHTS, concentration-response curves come from the screen itself.
`CCOC(=O)N1CCc2c(sc3c2c(=O)n(-c2ccc(Cl)cc2)c(=O)n3CC(C)C)C1`: the “activity change, positive = activation” value was inactive: -3.7%. For `COc1ccc(Nc2c(-c3cccc(O)c3)nc3cnccn23)cc1`, the “activity change, positive = activation” value was inactive: -14.5%. As for `CC(=O)Nc1cccc(-n2cc3c(c2-c2ccccc2Cl)c(=O)n(C)c(=O)n3C)c1`, the figure is inactive: -7.6%; as for `O=C(CCn1ccc2cc(S(=O)(=O)N3CCCC3)ccc21)NCc1ccccc1Br`, inactive: -2.48%. `O=C(CN1C(=O)c2cccnc2Oc2ccc(Cl)cc21)Nc1cccc(C(F)(F)F)c1`: the “activity change, positive = activation” value was inactive: -32.2%. As for `CC(C)Oc1ccc(C(=O)Nc2c(C(=O)Nc3cccc(F)c3)oc3ccccc23)cc1`, the “activity change, positive = activation” value is inactive: -2.11%. The value for `CCc1nc2nc(C)cc(Nc3cccc(C)c3C)n2n1` was inactive: -25.3%; that for `Cc1cccc(C2CC(=O)Nc3cc4c(cc32)OCO4)c1` (configuration not stated) was inactive: -42%.

With `CCc1ccc(NC(=O)CN2C(=O)C3(SCC(=O)N3c3ccc(F)c(F)c3)c3ccccc32)cc1` (configuration not stated), the “activity change, positive = activation” value was inactive: -47.4%. As for `Cc1cc2ccccc2n1CCNC(=O)c1ccc(Br)cc1`, the figure is inactive: -12.4%; as for `COc1ccc(CNC(=O)CCc2c(C)c3cc4c(C)c(C)oc4cc3oc2=O)cc1OC`, inactive: -11.2%. Consider `CC(C)c1ccc(OCC(=O)N(Cc2cccs2)C2CCS(=O)(=O)C2)cc1` (configuration not stated), for which the “activity change, positive = activation” value was inactive: 0.433%. As for `Cc1nnc(N2CCC(C(=O)NCCC(C)C)CC2)c2nn(-c3ccc(Cl)cc3)c(C)c12`, the figure is inactive: -6.1%; as for `CCOc1cc(Cl)c(S(=O)(=O)n2ccnc2)cc1Cl`, inactive: 2.97%; as for `CCC(C(=O)N1CCN(c2ccccc2)CC1)n1c(C)c2cnn(-c3ccccc3)c(=O)c2c1C` (configuration not stated), inactive: -15.9%.

Consider `O=C(NC1CCCC1)c1ccc2c(=O)n(Cc3ccccc3)c(SCc3cccc(F)c3)nc2c1`, for which the “activity change, positive = activation” value was inactive: -11.5%. As for `CCN(CC)c1ccc(NC(=O)CCCN2C(=O)C(c3ccccc3)Oc3cccnc32)c(C)c1` (configuration not stated), the figure is inactive: -18.1%.

Take `COC(=O)c1ccc(NC(=O)CN2C(=O)CC(c3ccccc3)Sc3ccccc32)cc1` (configuration not stated): the “activity change, positive = activation” value was inactive: -6.37%. The value for `Cc1cc(C)n(C(C)CC(=O)Nc2ccc(C)c(N(C)C)c2)n1` (configuration not stated) was inactive: -5.74%; that for `C=C(C)CSc1nc(-c2ccccc2)cc(-c2ccc(OC)cc2)c1C#N` was inactive: -18.2%; that for `Cc1ccc(N2CC(C(=O)Nc3ccc(N(C)C)cc3)CC2=O)cc1Cl` (configuration not stated) was inactive: -2.05%. For the compound `Fc1ccccc1N1CCN(c2nc3ccccc3c3nc(-c4ccccc4)nn23)CC1`, the “activity change, positive = activation” value was inactive: -4.1%. For the compound `CSc1ccc(-c2nnc(NC(=O)c3ccc4c(c3)OCCO4)o2)cc1`, the “activity change, positive = activation” value was inactive: 2.07%. As to `Cc1ccc(-c2cn3c(n2)sc2cc(C(=O)NCCCc4ccccc4)ccc23)c(C)c1`, the “activity change, positive = activation” value is inactive: 1.34%. As to `CCCCN(CCCNC(=O)c1cc(Nc2ccc(OC)c(OC)c2)nc2ccccc12)c1ccccc1`, the “activity change, positive = activation” value is inactive: -13.5%. The value for `CC1CCCN(S(=O)(=O)c2ccc3c(c2)c(=O)nc2ccccn23)C1` (configuration not stated) was inactive: 0%; that for `CC(=O)O[C@@]12CO[C@@H]1C[C@H](O)[C@@]1(C)C(=O)[C@H](O)C3=C(C)[C@@H](OC(=O)[C@H](O)[C@@H](NC(=O)OC(C)(C)C)c4ccccc4)C[C@@](O)([C@@H](OC(=O)c4ccccc4)[C@H]21)C3(C)C` was inactive: -34.2%. The value for `Cc1cc(C)c(S(=O)(=O)NCC(c2ccc(N(C)C)cc2)N2CCOCC2)c(C)c1` (configuration not stated) was inactive: -18.3%; that for `CCc1cccc(NC(=O)CN(C)S(=O)(=O)c2ccc3c(c2)CCCN3C(C)=O)c1` was inactive: -17%; that for `CCOC(=O)c1cnc2c(C)c(Cl)ccc2c1Nc1ccc(N2CCOCC2)cc1` was inactive: 15.5%. Turning to `CC(CCc1ccccc1)NC(=O)Cn1c(=O)nc(-c2ccccc2)c2ccccc21` (configuration not stated), the “activity change, positive = activation” value was inactive: 8.49%. As for `Cc1ccccc1Nc1c(-c2cccnc2)nc2ccc(Cl)cn12`, the figure is inactive: -8.31%. As for `CCc1nn2c(=O)c(S(=O)(=O)Nc3ccc(Cl)cc3)c(C)nc2s1`, the “activity change, positive = activation” value was inactive: -25.8%. As for `CCCCN(C)CCNC(=O)CN1C(=O)CSc2ccc(S(=O)(=O)N3CCOCC3)cc21`, the figure is inactive: -0.509%; as for `O=C(CSc1nc(-c2ccc(F)cc2)[nH]c1-c1ccc(F)cc1)Nc1ccc2c(c1)OCO2`, inactive: -48.7%.

Turning to `O=C(Cc1ccc(-c2ccccc2)cc1)NCCS(=O)(=O)N1CCN(c2ccccc2)CC1`, the “activity change, positive = activation” value is inactive: -19.9%. As to `COc1cc(NC(=O)CSc2ccc(-c3ccccn3)nn2)cc(OC)c1`, the “activity change, positive = activation” value was inactive: -36.1%. Consider `Cc1ccc(CNC(=O)c2ccc(CS(=O)Cc3cccc(Cl)c3)o2)cc1` (configuration not stated), for which the “activity change, positive = activation” value is inactive: -21.2%. The value for `COc1ccc(-c2cc(C(F)(F)F)nc(SCC(=O)NCC(C)C)n2)cc1OC` was inactive: -10%; that for `COc1ccccc1NC(=O)C1=C(C)Nc2nc3ccccc3n2C1c1cccc(OC)c1OC` (configuration not stated) was inactive: -11.6%.

As to `Cc1ccn2c(=O)cc(COc3cccc(NC(=O)Nc4cccc(Cl)c4C)c3)nc2c1`, the “activity change, positive = activation” value is inactive: -5.55%. Turning to `O=C(NCCCN1CCOCC1)c1ccc2c(c1)N(Cc1cccc(Cl)c1)C(=O)c1ccccc1S2`, the “activity change, positive = activation” value is inactive: -20.3%.

As to `O=C(Cn1cc(S(=O)(=O)c2ccccc2)c(=O)c2cc(Cl)ccc21)Nc1ccc2c(c1)OCO2`, the “activity change, positive = activation” value is inactive: 3.94%.

For `COc1ccc(NC(C)=O)cc1NC(=O)CN1CCN(c2ccc(F)cc2)CC1`, the “activity change, positive = activation” value is inactive: -15.7%. Regarding `O=S(=O)(c1cccc2ccccc12)N1CCN(c2ccc(Cl)c(Cl)c2)CC1`, the “activity change, positive = activation” value was inactive: -6.26%.

In the case of `CCOc1ccc(NC(=O)CSc2nnc(CNC(=O)C34CC5CC(CC(C5)C3)C4)n2CC)cc1`, the “activity change, positive = activation” value was inactive: -27.7%.

`CCOC(=O)c1ccccc1NC(=O)Nc1cc2c(cc1N1CCCC1)n(C)c(=O)n2C`: the “activity change, positive = activation” value was inactive: -16.1%. As for `Cc1cc2oc(C(=O)Nc3cccc(-c4nc5ccccc5o4)c3)c(C)c2cc1C`, the “activity change, positive = activation” value is inactive: 3.57%. As to `COc1ccc(-n2nc3cc(C)c(NC(=O)Cc4ccc(Cl)cc4)cc3n2)cc1`, the “activity change, positive = activation” value was inactive: 9.21%. `O=C(CSc1nc(=O)n(Cc2ccncc2)c2c1CCC2)Nc1ccc(F)cc1F`: the “activity change, positive = activation” value was inactive: -3.95%.

In the case of `CCCN1CN=C(NS(=O)(=O)c2ccc(NC(C)=O)cc2)NC1`, the “activity change, positive = activation” value was inactive: -0.211%. Turning to `CCc1ccc(NC(=O)CSc2nc(-c3cccc(OC)c3)nc3c2Cc2c(CO)cnc(C)c2O3)cc1`, the “activity change, positive = activation” value was inactive: -9.22%. For the compound `CC(Oc1ccccc1)C(=O)Nc1ccccc1C(=O)OCc1cc(=O)n2nc(C(C)C)sc2n1` (configuration not stated), the “activity change, positive = activation” value is inactive: 6.6%. Regarding `Cc1c(C(=O)N(C)C)sc2c1c(=O)n(-c1ccc(Cl)c(Cl)c1)c(=O)n2CC(=O)N1CCCCC1C` (configuration not stated), the “activity change, positive = activation” value was inactive: -10.1%. The value for `COc1cc(C(=O)N(Cc2ccc(N(C)C)cc2)CC2CCCO2)cc(OC)c1OC` (configuration not stated) was inactive: -8.44%.

As to `CCCC12CN3CC(CCC)(CN(C1)C3c1ccc(OC(C)C)cc1)C2=O` (configuration not stated), the activity change, positive = activation is inactive: 4.13% [at 11.5 µM, percent change from vehicle, -100% = no light].

As for `COc1cccc(Cn2c(C)c(CNC3CCCCC3)c(C(=O)O)c2C)c1`, the “activity change, positive = activation” value is inactive: -7.16%.
